Among all 220,000 compounds or so, about 5,700 (2.6%) were called active. Inconclusive results, whose numbers are uncertain, are shown with a selection of clear calls. Calls come from the whole dose curve; as a rule, active = well fitted inhibition curve with a large enough effect; inconclusive = small, poorly fitted or top-dose-only effect; inactive = no such curve, though single readings can be large or run the other way. A potency beside an inconclusive call is a rough fit, not a confirmed value.
The compounds below were run against Lysine-specific demethylase 5B (Homo sapiens) (UniProt Q9UGL1) (assay: Primary screen for KDM5B Histone Demethylases FDH-coupled qHTS). Conditions: FDH-coupled NADH fluorescence (FDH is formaldehyde dehydrogenase); activity change, negative = inhibition: at 57.7 µM (top of the series) unless noted.
Chain of UniProt Q9UGL1 (Q9UGL1 whole entry, looked up): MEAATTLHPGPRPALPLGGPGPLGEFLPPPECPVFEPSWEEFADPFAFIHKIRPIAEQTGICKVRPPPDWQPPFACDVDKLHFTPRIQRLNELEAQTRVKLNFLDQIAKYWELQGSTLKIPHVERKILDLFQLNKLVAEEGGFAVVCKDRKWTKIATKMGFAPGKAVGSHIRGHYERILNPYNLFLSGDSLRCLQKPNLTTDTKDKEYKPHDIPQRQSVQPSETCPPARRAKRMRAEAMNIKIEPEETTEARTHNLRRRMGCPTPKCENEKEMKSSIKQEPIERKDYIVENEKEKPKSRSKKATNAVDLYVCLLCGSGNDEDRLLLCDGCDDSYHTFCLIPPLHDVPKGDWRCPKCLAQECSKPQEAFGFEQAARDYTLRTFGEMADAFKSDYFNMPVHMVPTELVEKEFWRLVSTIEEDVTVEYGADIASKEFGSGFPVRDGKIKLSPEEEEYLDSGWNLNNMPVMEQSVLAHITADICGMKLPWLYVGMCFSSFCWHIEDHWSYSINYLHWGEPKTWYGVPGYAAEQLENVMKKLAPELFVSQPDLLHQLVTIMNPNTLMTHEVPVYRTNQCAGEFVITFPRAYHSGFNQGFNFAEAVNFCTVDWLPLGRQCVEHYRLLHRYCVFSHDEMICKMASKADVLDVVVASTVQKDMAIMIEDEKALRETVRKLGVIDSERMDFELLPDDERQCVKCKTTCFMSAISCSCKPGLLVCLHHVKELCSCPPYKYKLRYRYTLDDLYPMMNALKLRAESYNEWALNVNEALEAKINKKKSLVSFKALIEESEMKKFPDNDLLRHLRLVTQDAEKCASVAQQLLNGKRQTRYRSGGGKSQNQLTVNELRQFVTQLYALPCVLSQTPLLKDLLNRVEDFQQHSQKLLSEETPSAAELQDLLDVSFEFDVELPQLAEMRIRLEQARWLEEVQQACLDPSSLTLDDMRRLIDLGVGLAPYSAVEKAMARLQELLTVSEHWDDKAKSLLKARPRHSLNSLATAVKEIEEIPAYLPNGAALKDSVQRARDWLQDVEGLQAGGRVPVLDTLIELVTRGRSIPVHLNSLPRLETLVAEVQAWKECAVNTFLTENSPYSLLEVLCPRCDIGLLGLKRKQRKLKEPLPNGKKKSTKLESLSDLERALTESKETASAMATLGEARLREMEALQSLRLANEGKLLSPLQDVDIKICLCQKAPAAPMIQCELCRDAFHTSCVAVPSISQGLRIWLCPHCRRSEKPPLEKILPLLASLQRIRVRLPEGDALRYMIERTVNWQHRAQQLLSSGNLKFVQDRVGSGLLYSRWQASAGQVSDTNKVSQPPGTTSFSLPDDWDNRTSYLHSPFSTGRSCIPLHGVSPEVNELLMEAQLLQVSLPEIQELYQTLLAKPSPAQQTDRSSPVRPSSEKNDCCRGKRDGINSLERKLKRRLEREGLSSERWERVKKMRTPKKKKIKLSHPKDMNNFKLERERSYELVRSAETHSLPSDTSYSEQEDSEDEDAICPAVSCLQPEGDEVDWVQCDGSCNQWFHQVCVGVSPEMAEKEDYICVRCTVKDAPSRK
Outline: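 Here, H3K4me3 peptide (12.5 µM in substrate mix) is demethylated by KDM5BΔAP, 200 nM final, after 10 min compound exposure. Formaldehyde product is coupled through FDH (0.25 U/mL in mix) to NADH fluorescence; 30-min ΔRFU feeds dose-response curves.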
In the case of `COc1ccc(/C=C/c2nc(-c3ccccc3)cc(=O)[nH]2)cc1`, the Potency was inconclusive: 25.1 µM [inhibitor, single point]. In the case of `Cc1ccc2nc(-c3ccc(NC(=O)c4cccc([N+](=O)[O-])c4C)cc3)oc2c1`, the “activity change, negative = inhibition” value was inactive: -6.72%. In the case of `Cc1ncccc1Oc1ncnc(-c2cc(N)nc3[nH]ccc23)c1C`, the Potency was inconclusive: 31.6 µM [inhibitor, partial curve, poor fit]. For `Cc1ccc(-c2nc(Cn3cnc4ccsc4c3=O)co2)cc1`, the “activity change, negative = inhibition” value was inactive: 6.91%. For `COCCCNC(=O)C1CCCCC1`, the “activity change, negative = inhibition” value was inactive: 18.8%. In the case of `CC(C)c1ccc(CC(=O)N2CCCc3ncc(C(=O)Nc4cccc(C(F)(F)F)c4)cc32)cc1`, the Potency was active: 25.1 µM. `COc1ccc(Nc2cc(C)c3cc(NC(=O)c4ccccc4Cl)ccc3n2)cc1` was tested, and the Potency was inconclusive: 31.6 µM [inhibitor, partial curve, poor fit]. In the case of `C=CCn1c(COc2ccc(C(C)(C)C)cc2)nnc1SCc1c(F)cccc1Cl`, the “activity change, negative = inhibition” value was inactive: -2.34%. `Cc1ccc(-c2cc(Nc3ccc(C(=O)N(C)Cc4ccccc4)cc3)ncn2)cc1` was tested, and the Potency was inconclusive: 2 µM [inhibitor, full curve, poor fit]. In the case of `COc1cc(CNC(=O)c2c(C)noc2-c2cc(OC)c(OC)c(OC)c2)cc(OC)c1`, the Potency was active: 28.2 µM. For `CC(OC(=O)/C=C/c1cccc2cccnc12)C(=O)NC(C)(C)C` (stereo not drawn), the “activity change, negative = inhibition” value was inactive: 3.3%. In the case of `Cc1ccc(Sc2ccc(N3CCCC(C(=O)Nc4ccc(F)c(Cl)c4)C3)nn2)cc1` (stereo not drawn), the Potency was inconclusive: 39.8 µM [inhibitor, single point]. With `CCOc1ccc(CNC(=O)c2ccc3c(c2)c(C)c(C)n3C)cc1` the Potency was inconclusive: 15.8 µM [inhibitor, partial curve, poor fit]. With `O=S1(=O)CCN(C2CCCCC2)c2c(F)nc(N3CCOCC3)c(F)c21` the “activity change, negative = inhibition” value was inactive: -9.18%. For `Cc1c(O)ccc2c(CN(C)CCOc3ccc(F)cc3)cc(=O)oc12`, the Potency was inconclusive: 20 µM [inhibitor, partial curve, poor fit]. In the case of `Cc1ccc(S(=O)(=O)N(C)C)cc1NC(=O)COC(=O)c1ccccc1C(F)(F)F`, the “activity change, negative = inhibition” value was inactive: 0.0741%. In the case of `Cc1ccc2nc3c(cc(C#N)c(=O)n3-c3nnc(SCc4ccc(F)cc4)s3)c(=O)n2c1`, the Potency was inconclusive: 0.794 µM [inhibitor, full curve, poor fit]. `O=c1c2ccccc2nc(/C=C/c2cccc(Br)c2)n1CCCO` was tested, and the Potency was inconclusive: 35.5 µM [inhibitor, single point]. `CNC(=O)C1CCN(Cc2nc3ccccc3c(C)c2C(=O)OC)CC1` was tested, and the “activity change, negative = inhibition” value was inactive: 14.5%. `Cc1ccc(-n2nnnc2SCC(=O)N(C)c2ccccc2C(=O)NCc2ccco2)cc1C` was tested, and the “activity change, negative = inhibition” value was inactive: -0.244%. With `CCOc1ncccc1C(=O)Nc1ccc(-c2ccc3nnc(C)n3n2)cc1` the Potency was inconclusive: 10 µM [inhibitor, partial curve, poor fit]. `CC(C)n1nc(OC(C)(C)C(=O)Nc2cccnc2)c2cc(CN3CCOCC3)ccc21` was tested, and the Potency was inconclusive: 35.5 µM [inhibitor, single point]. In the case of `COc1ccccc1NC(=O)c1cc(-c2ccco2)nc2ccccc12`, the Potency was inconclusive: 14.1 µM [inhibitor, partial curve, poor fit]. For `COc1ccccc1OCCCCCCN1CCN(C)CC1`, the Potency was inconclusive: 39.8 µM [inhibitor, single point]. With `Cc1cccc(-c2cn[nH]c2C2CCN(C(=O)c3ccccc3OC(F)F)CC2)c1` the “activity change, negative = inhibition” value was inactive: -0.879%. In the case of `CCN1CCN(c2ccc(C(=O)OC)cc2NC(=O)COc2ccccc2)CC1`, the “activity change, negative = inhibition” value was inactive: -28.5%. `Cc1ccc(NS(=O)(=O)c2cccc(Cl)c2Cl)cc1S(=O)(=O)N1CCOCC1` was tested, and the “activity change, negative = inhibition” value was inactive: 11.6%. With `CC(Sc1ncnc2ccccc12)C(=O)NC(N)=O` (stereo not drawn) the “activity change, negative = inhibition” value was inactive: 12.9%. In the case of `O=C(CSc1cccc2cccnc12)N/N=C/c1ccc(O)cc1`, the Potency was inconclusive: 35.5 µM [inhibitor, partial curve, poor fit]. In the case of `CN(C)[S+](=O)([O-])c1ccc2c(c1)OCCN(Cc1cccc(Cl)c1)C2`, the “activity change, negative = inhibition” value was inactive: -8.54% [at 86.2 µM]. In the case of `CC(O)c1ccc(-c2ccc(CNCc3ccccn3)o2)cc1` (stereo not drawn), the Potency was inconclusive: 39.8 µM [inhibitor, single point]. For `Cc1[nH]ccc(=O)c1OCC(=O)Nc1ccc(Cl)c(Cl)c1`, the “activity change, negative = inhibition” value was inactive: 11.3%. In the case of `CCC(C)NC(=O)c1ccccc1-c1ncc(-c2ccc(F)cc2)o1` (stereo not drawn), the Potency was inconclusive: 25.1 µM [inhibitor, partial curve, poor fit]. With `CCN(C(=O)C1CCN(c2oc(-c3ccco3)nc2C#N)CC1)c1ccccc1` the Potency was inconclusive: 25.1 µM [inhibitor, partial curve, poor fit]. `NC(=O)c1nc(Nc2ccccc2)sc1NC(=O)c1c(F)cccc1F` was tested, and the Potency was inconclusive: 28.2 µM [inhibitor, single point]. With `CCOC(=O)c1ccc(NC(=O)c2c(NCc3sccc3C)sc3c2CCC(C)C3)cc1` (stereo not drawn) the Potency was inconclusive: 14.1 µM [inhibitor, partial curve, poor fit]. For `C#CCNC(=O)C[C@H]1C[C@@]2(C(=O)OC)C(=C[C@H](COCc3ccccc3)O[C@@H]2C)N(CCCCCCCC)C1=O`, the Potency was inconclusive: 31.6 µM [inhibitor, single point]. In the case of `CCOCCCNC(=O)c1c[nH]c2ccc(S(=O)(=O)N(C)c3ccc(Cl)cc3F)cc2c1=O`, the Potency was inconclusive: 14.1 µM [inhibitor, partial curve, poor fit]. `Cc1ccccc1Nc1nn2c(=O)c3ccc(C(=O)NCC(C)c4ccccc4)cc3nc2s1` (stereo not drawn) was tested, and the Potency was inconclusive: 25.1 µM [inhibitor, partial curve, poor fit]. In the case of `O=C(NCCCc1nc2ccc(F)cc2[nH]1)C1NCCc2[nH]cnc21` (stereo not drawn), the Potency was inconclusive: 12.6 µM [inhibitor, partial curve, poor fit]. For `CN[C@@H](CO)C(=O)NCc1nc(-c2cccc(F)c2)c(-c2ccccn2)[nH]1`, the Potency was inconclusive: 11.2 µM [inhibitor, partial curve]. In the case of `N#Cc1nc(COc2ccccc2)oc1NCc1ccccc1Cl`, the Potency was inconclusive: 28.2 µM [inhibitor, single point]. For `CN(C)CCNC(=O)c1nc2nc(-c3ccccc3)c(-c3ccccc3O)cc2n1C`, the Potency was inconclusive: 31.6 µM [inhibitor, partial curve, poor fit].

From PubChem BioAssay AID1347165 (National Center for Advancing Translational Sciences (NCATS), 2019)
Note: nearly all actives have a fitted effect of over 70% in size.
Potency is the fitted concentration of half-maximal effect; tags give direction and shape of the fitted curve.
Throughout, for activity change, negative = inhibition: 0% is about no effect.
